Assay results reported in the supplement of paper PMC10126150.
Values marked as one replicate rest on one cluster of the flow cell; about a third of the high ones do not repeat.

tested on: ATP; assay: switch fluorescence ratio, 500 uM ATP over buffer (Cy3 cluster intensity, sum of 5 cycles each) (fold (ratio)); higher = stronger signal-on switching upon ATP binding; sequences stand for … in TCGTCGGCAGCGTCAGATGTGTATAAGAGACAGTTTTTTTTTTTTTTTTTTTTTTTTT…TC; settings: aptamer strand: ATP DNA aptamer (quencher-CACCTGGGGGAGTATTGCGGAGGAAGG + anchor), 100 nM annealed; ATP concentration: 500 uM; one replicate
How it was run: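 Clusters with intensities outside 100-1000 RFU were excluded. The remaining Cy3-labelled switching-strand clusters on a modified Illumina MiSeq flow-cell had been annealed to 100 nM quencher-labelled ATP aptamer and imaged in selection buffer, then after 15 min with 500 uM ATP at 22 °C, for five cycles separated by NaOH stripping and re-annealing. The fluorescence ratio, averaged per switch-domain sequence, is each cluster's summed target-cycle Cy3 intensity over its summed buffer-cycle Cy3 intensity.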
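Further: ATP exposure 15 min at 22 °C before imaging.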

Sequence	switch fluorescence ratio
TAATGTCCGG	1.01
TAATTAAAGT	1.02
TAATTATGGA	1
TAATTCAAAA	1.01
TAATTGAACT	1.02
TAATTGCGGA	1
TAATTGGAAG	0.963
TAATTGTGGC	0.929
TAATTTCATT	0.996
TAATTTGGCA	0.999
TAATTTGGTC	0.948
TACAAACTAA	1.08
TACAACAATG	1.07
TACAACGGTT	0.992
TACAAGACAT	1.02
TACAAGCCGC	1.05
TACAAGGTTT	1.01
TACAAGTGGT	1.02
TACAATTAAT	1.03
TACAATTAT	1.04
TACACAATTG	0.979
TACACACCCG	1.38
TACACAGTG	0.989
TACACCCTCG	1.13
TACACGAACC	1.33
TACACGGGCG	0.943

Sequence	switch fluorescence ratio
TACACGTTGT	1.03
TACACTCTGA	0.999
TACACTGAGG	1.03
TACACTTAG	1.06
TACAGAGCCG	1.05
TACAGATGCG	0.99
TACAGCCTGG	1.02
TACAGCGTGA	1.09
TACAGCTGTA	1.02
TACAGGAATC	1.06
TACAGGGGAT	1.06
TACAGTACTT	1.42
TACAGTGTCA	1.02
TACAGTTCCC	1.02
TACAGTTGAG	0.958
TACAGTTGTC	0.992
TACATCGGTA	0.989
TACATCTTAA	1.01
TACATGGCCG	1.2
TACATTCGGA	1.03
TACATTGACT	1.14
TACATTTTAG	1
TACCACGTT	1.04
TACCAGATCA	0.991
TACCCCTAAA	1.05
TACCGAGGGC	1.1

Sequence	switch fluorescence ratio
TACCGCTGAG	1.13
TACCGGGTCG	1.02
TACCTCATAG	1.02
TACCTCGGGA	1.01
TACCTCTGAA	1.03
TACCTGGGAT	1.03
TACCTTGTA	0.994
TACGAGTT	0.996
TACGATATA	1.1
TACGCAGCAG	3.51
TACGCAGCTC	3.96
TACGCCTACT	1.32
TACGCGCTA	1.87
TACGCGGCCG	1.13
TACGCGGTGA	1.08
TACGCTAAAA	1.06
TACGGAA	1.13
TACGGACAGA	1.21
TACGGACTTC	1.22
TACGGATTGA	1.03
TACGGCGGCT	0.874
TACGGCGTAT	1.01
TACGGCTTCG	1.09
TACGGGACAT	1.22
TACGGGCCAT	1.01
TACGGGTAC	3.52

Sequence	switch fluorescence ratio
TACGGGTGTT	1.03
TACGGTATTT	1.16
TACGGTCAAA	1.03
TACGGTGACG	1
TACGGTGGA	1.01
TACGGTTAAT	1.05
TACGTAGCG	1.07
TACGTCAAGG	1.12
TACGTCCGCT	1.35
TACGTCGTGG	1.04
TACGTGGCC	0.983
TACGTGGGAG	1.02
TACGTTAAGA	1.11
TACGTTCATT	1.1
TACGTTCCTA	1.11
TACGTTTACA	1.27
TACTAACCTC	1.11
TACTAAGTTA	1.02
TACTACAAGA	1.03
TACTATAGTT	0.997
TACTCAGGAG	1.03
TACTCAGTAC	1.41
TACTCTAGTA	0.99
TACTGACCAA	1.13
TACTGAGCTT	1.04
TACTGCAGG	1.03

Sequence	switch fluorescence ratio
TACTGCAGTG	0.972
TACTGGCACC	1.2
TACTGGGCAT	1.02
TACTGGTCGT	1.03
TACTTAACAC	1.08
TACTTAACTT	1.12
TACTTAATTT	1.06
TACTTACCTA	1.27
TACTTCCGGG	1.41
TACTTCGGCG	1.03
TACTTCGTCT	1.03
TACTTCTACG	1.16
TACTTGTGT	0.982
TACTTTTGTT	1.02
TACTTTTTCG	0.978
TAGAAAAGTT	0.943
TAGAACCGAT	1.12
TAGAACGTTC	0.96
TAGAACTA	0.989
TAGAACTTG	0.977
TAGAAGGAT	0.981
TAGAAGTAAG	1
TAGAATCGCC	1.03
TAGAATCGGA	0.952
TAGAATGCGT	1.05
TAGAATGCTA	1.01

Sequence	switch fluorescence ratio
TAGAATTGCC	0.947
TAGACAAAAG	1.04
TAGACAAGGT	0.965
TAGACCAATC	1.07
TAGACGACTA	1.04
TAGACGCA	0.99
TAGACTAGGG	1.01
TAGACTTAT	0.988
TAGACTTGGA	1.03
TAGAGAAGGG	0.995
TAGAGACTC	1.02
TAGAGATTCA	0.998
TAGAGCACTC	0.958
TAGAGCTCCA	1.02
TAGAGGATCG	1.04
TAGAGTGAAA	1.03
TAGAGTGTA	0.963
TAGAGTTGGT	0.998
TAGATACGCC	1.15
TAGATCAACT	0.975
TAGATGCCT	0.994
TAGATGGGTA	0.988
TAGATTAGTA	0.99
TAGATTGGAC	0.985
TAGATTTCAT	1.02
TAGCAACGG	1.07

Sequence	switch fluorescence ratio
TAGCACCAG	1.05
TAGCCATCTT	0.989
TAGCCCAGGG	1.66
TAGCCCCACC	1.05
TAGCCCCCCG	1.08
TAGCCGAAGA	0.973
TAGCCGGGTA	1.03
TAGCCTATTA	0.97
TAGCCTGGAA	0.991
TAGCCTGGGA	1.2
TAGCCTGGGG	0.992
TAGCCTGGTC	1.01
TAGCCTGTCA	1
TAGCGAAGGG	1
TAGCGCAGGG	1.03
TAGCGCGTCG	0.994
TAGCGGTTTG	0.947
TAGCGTAGGC	1.04
TAGCGTAGTT	1.02
TAGCGTCGTC	0.985
TAGCGTGTCT	0.986
TAGCGTTGCC	0.962
TAGCTAAAAG	1
TAGCTAGGGA	0.992
TAGCTGCGGG	1.02
TAGCTGCTTA	0.989

Sequence	switch fluorescence ratio
TAGCTGGGAT	1
TAGCTGTAAC	1.09
TAGCTGTATG	0.991
TAGCTTGCGC	0.982
TAGCTTGGTC	0.931
TAGCTTGTTA	0.975
TAGCTTTTGT	1.03
TAGGAGAATG	0.994
TAGGAGCAAC	1.62
TAGGAGCCCT	1.02
TAGGATATAA	0.97
TAGGATGACT	0.985
TAGGATGAGC	1.01
TAGGATGGG	0.997
TAGGATTCGT	1.05
TAGGCATCTT	0.987
TAGGCTAACT	1.02
TAGGCTATTT	0.991
TAGGCTCTGG	1.01
